Reference: PubChem BioAssay AID1918998 (Molecular Pharmacology Branch, DTP, NCI, 2023)
The source holds more than one record for some entries. The list is limited to them. There may be further records. The values listed for one entry are repeats (runs, samples, wells, individuals or studies). Additions like (4×) say how often a value occurs here. Dates in brackets are months of testing.

System: 521955-158-R2-J5-PDC complex spheroid growth
Experiment: Anticancer human tumor 521955-158-R2-J5-PDC patient-derived pancreatic carcinoma cell line growth inhibition [AhR]
Conditions: stronger effect = lower value
Excerpt: Multicellular complex tumor spheroid response to aryl hydrocarbon receptor antagonists in combination with a variety of drugs and investigational agents in selected tumor cell lines
The current study was undertaken to assess response to aryl hydrocarbon receptor antagonists in combination with standard-of-care drugs and investigational agents in solid tumor complex spheroid models. Complex spheroids include a stromal component modeled by human endothelial cells (HUVEC) and fibroblasts modeled by human mesenchymal stem cells (MSCs). The concentration ranges selected for each drug and investigational agent were based upon clinically achievable concentrations if the clinical Cmax of the agent was known.
Compounds. The drugs and investigational agents: BAY 2416964 (NSC825713), GNF351 (NSC835774), CH-223191 (NSC835775), CPI-455 (NSC825282), aza-TdCyd (NSC777586), decitabine (NSC127716), belinostat (NSC758774), entinostat (NSC756642), pevonedistat (NSC761192), tazemetostat (NSC777109), talazoparib (NSC765396), olaparib (NSC753686), selinexor (NSC780203), nedisertib (M3814, NSC802822), bortezomib (NSC756655), venetoclax (NSC766270), doxorubicin (NSC123127), elimusertib (BAY189344, NSC800525), ceralasertib (AZD6738, NSC777638), TAK-243 (NSC785004), alisertib (NSC759677), etoposide (NSC141540), topotecan (NSC609699), eribulin (NSC707389), gemcitabine (NSC613327), carboplatin (NSC241240), cisplatin (NSC119875), and SN-38 (NSC673596) were obtained from the National Cancer Institute (NCI) Developmental Therapeutics Program Chemical Repository (32). The FDA-approved anticancer drug set is available from the Developmental Therapeutics Program at https://dtp.cancer.gov/organization/dscb/obtaining/available plates.htm. […] The stock solutions were prepared in dimethyl sulfoxide (DMSO, Sigma-Aldrich, St. Louis, MO, cat. D2650), except for the platinum compounds which were prepared in saline (Quality Biological, Gaithersburg, MD, cat. 114-055-101), at 800-fold the tested concentration and stored at -70 degrees C prior to their use. All drugs and investigational agents were tested over a range starting from a high concentration at or near the clinical Cmax and decreasing in half-log increments. If the clinical Cmax for an agent had not been determined, the highest concentration tested was 10 microM (Table 1).
Cell Culture. All cells were maintained in an incubator at 37 degrees C and 5% CO2 with 95% humidity. The PDC lines were cultured according to standard operating procedures established by the NCI PDMR (https://pdmr.cancer.gov). Briefly, all PDCs were thawed and cultured in Matrigel-coated flasks prepared with a working solution of 1X Ham's F-12 nutrient mix, without supplementation (Invitrogen, Waltham, MA, cat. 11765054), 100 U/mL penicillin-streptomycin (Invitrogen, cat. 15140122), and 2.5% Matrigel (Corning Inc., Corning, NY, cat. 354248) for the first three passages. All PDCs were cultured in complete DMEM/F-12 media containing advanced DMEM/F-12 (Invitrogen, cat. 12634028), 4.9% defined fetal bovine serum, heat inactivated (HyClone Laboratories Inc., Logan, UT, cat. SH30070.03HI), 389 ng/mL hydrocortisone (Sigma-Aldrich, cat. H4001), 9.7 ng/mL human EGF recombinant protein (Invitrogen, cat. PHG0313), 23.4 microg/mL adenine (Sigma-Aldrich, cat. A2786), 97.3 U/mL penicillin-streptomycin (Invitrogen, cat. 15140122), 1.9 mM L-glutamine (Invitrogen, cat. 25030081), and 9.7 microM Y-27632 dihydrochloride (Tocris Bioscience, Bristol, United Kingdom, cat. 1254). The PDCs were cultured in complete DMEM/F12 media without 10 microM Y-27632 dihydrochloride for at least two passages prior to the screen. The established cell lines NCI-H1341 and […] were cultured in DMEM/F-12, HEPES (Invitrogen, cat. 11330032), 5% defined fetal bovine serum (HyClone Laboratories Inc., cat. SH30070.03), ITS premix universal culture supplement [insulin (5 microg/mL), transferrin (5 microg/mL), and selenious acid (5 ng/mL)] […]
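Further: spheroids mix tumor cells with HUVEC endothelium and human MSC stroma; luminescence taken as viability surrogate after a week of drug exposure.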

`CC(CO)NC(=O)c1cc(-c2ccc(Cl)cc2)nn(-c2cnn(C)c2)c1=O` (stereo not given) was tested. Which viability, T/C (compound alone 0.1 µM) did it give?
The viability, T/C was 120, 88.5, 102 (2×), 94.2, 92, 101, 80.6, 104, 66.3, 90.4, 107, 91, 105, 83.5, 89.8, 77.7, 109, 97.6, 97.2%.

And the viability, T/C (compound alone 0.316 µM)?
The viability, T/C was 114, 102 (2×), 91.8, 100, 98.3, 96.2, 97.2 (2×), 103, 104, 101 (2×), 94.5, 105, 106, 91.7, 84, 97.3, 113, 81.5%.

What about the viability, T/C (compound alone 1 µM) of the same molecule?
The viability, T/C was 104, 101, 86.7, 97, 97.5, 75.8, 82.8, 99.6, 81.7, 90.6, 103, 98.2, 86.2, 111, 116, 90.7, 131, 128, 97.2, 102, 118%.

And the viability, T/C (compound alone 3.16 µM)?
Its viability, T/C is 138, 95.8, 97.1, 88.3, 98.2, 99.4, 102, 89.8, 81.2, 110, 100, 85.3, 117, 92.6, 91.7, 114, 96.8, 90.8, 129%.

What does the source list for `Cc1ccccc1N=Nc1ccc(NC(=O)c2ccnn2C)c(C)c1`?
viability, T/C (compound alone 0.1 µM): 94.7, 73.2, 96.5, 77.5, 109 (2×), 68.7, 76.8, 80.3, 85, 99.9, 92.3, 94.2, 85.9, 104, 107, 94.3, 78.1, 112%; viability, T/C (compound alone 0.316 µM): 85.8, 85.2, 79.8, 86.3, 85, 88.9, 108, 101 (2×), 94, 99.5, 103, 123, 97.6, 93, 88.3, 97.7, 85.6, 105% (2×); viability, T/C (compound alone 1 µM): 140, 105 (3×), 112 (2×), 92.1, 99.1, 110, 87.2, 103, 95.5, 118 (2×), 99, 93, 143, 115, 98.7, 114%; viability, T/C (compound alone 3.16 µM): 148, 105, 136, 108, 126, 122 (2×), 99.1, 109, 132, 115, 114, 124, 123, 130, 141, 128 (2×), 118, 102%; viability, T/C (compound alone 10 µM): 172, 122, 124, 140 (2×), 132 (2×), 142 (2×), 105, 138, 151, 161, 129, 153, 165, 121, 147, 100, 131, 111%

`Cc1cncc(-c2nc(NCCc3c[nH]c4ccccc34)c3ncn(C(C)C)c3n2)c1` was tested. Which viability, T/C (compound alone 0.1 µM) did it give?
The viability, T/C was 84.7, 93.4, 93.8, 103, 107 (2×), 81.9, 85.7, 94.7, 91.2, 91.9, 93 (2×), 79.9, 94.2, 96.8, 95.7, 109, 104, 102%.

And the viability, T/C (compound alone 0.316 µM)?
Its viability, T/C is 99.2, 93.5, 98.4, 94.1, 112, 106, 98.9, 116 (2×), 107, 124, 101 (2×), 104, 97.1, 98, 97.4, 122, 108, 113%.

What about the viability, T/C (compound alone 1 µM) of the same molecule?
The viability, T/C was 110, 121, 118, 106 (3×), 104, 95.5, 113 (2×), 102 (2×), 105 (2×), 112 (2×), 129, 115, 101, 96.5%.

What about the viability, T/C (compound alone 3.16 µM) of the same molecule?
Its viability, T/C is 106, 131 (2×), 116 (2×), 134, 120, 104, 143 (2×), 109, 119, 123, 137, 133, 113, 126, 159, 95.9, 124%.

And the viability, T/C (compound alone 10 µM)?
The viability, T/C was 89.7, 115, 123, 116 (2×), 118 (2×), 108, 126, 113, 121, 111 (2×), 131, 85, 92.7, 99.2, 140, 147, 112%.

With `CC(C)CC(NC(=O)C(Cc1ccccc1)NC(=O)c1cnccn1)B(O)O` (stereo not given) as the molecule, how does the viability, T/C (compound alone 0.00949 µM) read?
Its viability, T/C is 5.76% [2022-05] and 95.9%, 69.2% [2022-06].
